Test results published in the supplement of paper PMC10338343.
± gives the standard deviation. This is a selection; strong and weak results do not stand in their true shares.

test system: MIWI (PIWIL1) piRISC loaded with piRNA #1 (30 nt); assay: pre-steady-state target cleavage rate (min^-1); MIWI and MILI are mouse PIWI proteins and EfPiwi is from a freshwater sponge; tags in brackets are library labels; higher = faster piRNA-guided slicing of the target; settings: guide: piRNA #1 5'p-UGAGGUAGUAGGUUGUAUAGUAUCCAGAGG; auxiliary factor: 500 nM mouse GTSF1
Method in brief: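 Active affinity-purified piRISC (1 nM) loaded with one synthetic guide was mixed with a transcribed, DNA-blocked target RNA library (0.1 nM), with or without 500 nM GTSF1 partner protein, in HEPES–potassium acetate buffer at 33 °C for 0–8 or 0–960 min. Uncleaved targets were sequenced, normalised to depth and to weakly complementary targets, and pooled across three trials, with k3 capped at 0.0001 min^-1. The pre-steady-state cleavage rate was determined with a burst-and-steady-state fit.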

Row | Sequence | pre-steady-state target cleavage rate
1 | GGAGACCUAACUAUACAACCUUCUACCUGA | 0.126 ± 0.035
2 | GGAGUGGUUACUAUACAACCUACUUCCUCA | 0.0202 ± 0.0058
3 | GGAGACCAUACUAUACAACCAACUACCUGA | 0.085 ± 0.012
4 | GCUCUGGUUACUAUAGAACCUACUACCUCA | 0.51 ± 0.04
5 | GGAGACGAUACUAUACAAGCUACUACCACA | 1.3 ± 0.054
6 | GCUCUCGAUACUAUACAUCCUACUACCUCA | 1.72 ± 0.09
7 | GGUCUGGAUACUAUUCAUCCUACUACCUCA | 1.4 ± 0.093
8 | GCUCUGCAUACUAUACAAGCUACUACCUCA | 1.42 ± 0.07
9 | GGAGACGAUACUAUACAACCUAGUACCUGA | 0.017 ± 0.0076
10 | GGAGAGGAUACUAAACAACCUAGUACCUCA | 0.0629 ± 0.018
11 | GGAGACCUAACUAUACAACGUACUACCUGA | 0.0714 ± 0.019
12 | GGACUGGAUACUAUACAACCAACAACCUCA | 0.0351 ± 0.0073
13 | GGAGACCUAUGUAUACACCCUACUACCUCA | 0.102 ± 0.017
14 | GGAGUGCAUACUAUACAACCUACUUCCUCA | 0.0214 ± 0.0055
15 | GGAGUGGAUACUUACAACCUACUACCUCA | 0.879 ± 0.096
16 | GGUCUGGAUACUAUACAUCCUACUACCACA | 1.36 ± 0.081
17 | GCUCUGGAUACUUUACAAGCUACUACCUCA | 1.23 ± 0.064
18 | GGAGACCUUCACUAUACAACCUACUACCUCA | 1.38 ± 0.15
19 | GGAGACCUAUCUAAACAACCUACUACCACA | 0.0234 ± 0.0083
20 | GGAGACCAAACUAUACAAGCUACUACCUCA | 0.517 ± 0.054
21 | GGAGACGAUACUAUACAACCUUGAACCUCA | 0.00705 ± 0.0029
22 | GGAGACCUUUCUAUACAUCCUACUACCUCA | 0.332 ± 0.029
23 | GGAGUGGAUACUAAACUACCUACUACCUCA | 0.827 ± 0.064
24 | GGAGACGAUACAAAACAACCUACUACCUCA | 0.509 ± 0.083
